Experimental data reported in PubChem BioAssay AID1508642 (National Center for Advancing Translational Sciences (NCATS), 2021).
The whole screen tested about 43,000 compounds, of which about 200 (0.47%) were called active. Not shown: some 12% with an inconclusive outcome. Calls come from the whole dose curve; as a rule, active = well fitted cell-killing curve with a large enough effect; inconclusive = small, poorly fitted or top-dose-only effect, or effect the other way; inactive = flat fitted curve, though single readings scatter. The list shows a part of the results.

experiment: Cell viability qHTS assay in S16 Pmp22-F2sN cells; conditions: S16 Pmp22-F2sN Schwann cells (luciferase reporters placed in the Pmp22 gene) viability, CellTiter-Glo, 24 h; series mostly up to 57.5 µM; activity change, negative = cytotoxicity: at the top concentration; note: nearly all actives have a fitted effect of over 65% in size
Procedure, shortened: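 Rat S16 Schwann reporter line, 24 h treatment with library compounds delivered at 23 nL per well. Cell viability by CellTiter-Glo luminescence.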
% is set by controls: 0 for no effect and ±100 for the full control effect.

| Structure (SMILES) | activity change, negative = cytotoxicity |
| --- | --- |
| Cc1ccc(OCC(=O)Nc2sc3c(c2C(N)=O)CCCC3)c(C(C)(C)C)c1 | inactive: 11.4% |
| COCCNC(=O)c1ccc(-c2nc(CN3CCc4ccccc43)c(C)o2)cc1 | inactive: 16.7% |
| Cc1cccc(NC(=O)c2cc3c(=O)n4ccccc4nc3n2C)c1C | inactive: -7.49% |
| CCCCNC(=O)Cn1cnc2sc(C)c(S(=O)(=O)N3CCN(c4ccccc4OC)CC3)c2c1=O | inactive: 7.22% |
| Cc1csc2nc(COC(=O)c3ccc(NC(=O)C(C)C)cc3)cc(=O)n12 | inactive: -23.4% |
| COc1ccccc1NC(=O)c1ncoc1-c1ccco1 | inactive: -11.7% |
| CC(C)OCCCNC(=O)CN1C(=O)COc2ccc(S(=O)(=O)N3CCOCC3)cc21 | inactive: 3.01% |
| Cc1ccc(-n2c(SCC(=O)Nc3ccc4c(c3)OCCO4)nc3c([nH]c4ccccc43)c2=O)cc1 | inactive: -4.41% |
| Cc1cccc(NS(=O)(=O)c2nnc(NC(=O)c3cccc(C)c3)s2)c1 | inactive: 3.18% |
| COC(=O)c1ccccc1NC(=O)CSc1nc2nc(C)cc(C)n2n1 | inactive: 2.41% |
| Cc1ccc(C(=O)Nc2ccc(Br)cc2)cc1S(=O)(=O)NCc1ccccc1 | inactive: -12.8% |
| CCOc1ccccc1C(=O)N(Cc1ccco1)Cc1ccccc1F | inactive: -4.32% |
| COC(=O)CN1C(C(=O)c2ccccc2)=C(OC(=O)c2ccc(C)cc2)c2ccccc2S1(=O)=O | inactive: 1.22% |
| Clc1cccc(CSc2ccc(-c3cccs3)nn2)c1 | inactive: -24.6% |
| O=C(c1cccn1-c1nnc(N2CCCCC2)s1)N1CCN(c2ccccc2)CC1 | inactive: 0.71% |
| CCOc1ccccc1CNC(=O)CCCN1C(=O)c2cccnc2Oc2ccc(Cl)cc21 | inactive: -12.2% |
| COc1ccccc1Cn1c(SCC(=O)C(C)(C)C)nc2ccccc2c1=O | inactive: 9.34% |
| CCNC(=O)C1CCN(Cc2cc3ccccc3n2Cc2ccc(C)cc2)CC1 | inactive: -1.22% |
| CCOC(=O)c1c(C)oc2nc(C)nc(N3CCN(c4ccc(OC)cc4)CC3)c12 | inactive: -0.505% |
| COc1ccc(CNC(=O)CCCN2C(=O)c3cccnc3Oc3ccc(Cl)cc32)cc1 | inactive: -2.96% |
| CCOC(=O)C1CCN(C(=O)Cn2ncc3c4ccccc4n(C)c3c2=O)CC1 | inactive: 8.74% |
| CCn1c(=O)c2sccc2n2c(CCC(=O)NCc3ccc(Cl)cc3)nnc12 | inactive: -7.15% |
| N#Cc1ccc(CSc2nnc(-c3ccc(Br)cc3)o2)cc1 | inactive: -0.282% |
| Cn1cc(C(c2ccccc2)c2ccc(Cl)s2)c2ccccc21 (configuration not stated) | inactive: 9.74% |
| Cc1ccc(N2C(=O)CSC23C(=O)N(CC(=O)NC2CCCCC2)c2ccccc23)cc1C (configuration not stated) | inactive: 3.88% |

| Structure (SMILES) | activity change, negative = cytotoxicity |
| --- | --- |
| CCOc1cccc(NC(=O)C2CC(=O)N(C)C(=Nc3ccc(F)cc3)S2)c1 (configuration not stated) | inactive: -9.56% |
| O=C(c1ccc(Br)s1)N(Cc1cccnc1)c1nc2ccc(F)cc2s1 | inactive: 6.98% |
| CCOc1ccccc1NC(=O)CN1C(=O)COc2ccc(S(=O)(=O)N3CCCCC3)cc21 | inactive: -6.69% |
| Cc1ccc2nc(COc3ccccc3NC(=O)COc3ccccc3Cl)cc(=O)n2c1 | inactive: 5.36% |
| CSc1ncc(C(=O)NCc2ccc(C)cc2)c(-c2ccccc2)n1 | inactive: 1.56% |
| Cc1ccc(CNC(=O)C2CCN(S(=O)(=O)c3c(C)noc3/C=C/c3c(C)cc(C)cc3C)CC2)cc1 | inactive: 1.59% |
| CCOC(=O)c1c(C)oc2ncnc(Nc3cc(Cl)ccc3OC)c12 | inactive: 8.95% |
| O=c1oc2c(CN3CCCC3)c(O)ccc2cc1-c1ccccc1 | inactive: -0.2% |
| COc1ccccc1N1CCN(C(=O)Nc2cn(CC(C)C)c(=O)c3ccccc23)CC1 | inactive: 0.167% |
| CCOCCCNC(=O)c1c(NC(=O)c2cc(=O)c3ccccc3o2)sc2c1CCC2 | inactive: 3.29% |
| CC(C)C(=O)Nc1cccc(C(=O)Nc2nnc(CC(C)(C)C)s2)c1 | inactive: 23.8% |
| CCOc1ccc(CNC(=O)c2ccc3c(c2)nnn3C2CCCC2)cc1 | inactive: 26.2% |
| Cc1cccc(Cn2c(=O)n(Cc3ccc4c(c3)OCO4)c(=O)c3oc4ccccc4c32)c1 | inactive: -2.12% |
| CCc1ccccc1NC(=O)c1cc2nc(-c3ccc(OC)c(OC)c3)cc(C(F)(F)F)n2n1 | inactive: -2.27% |
| O=C(Nc1ccc(C(=O)OCc2cc(=O)n3c4c(sc3n2)CCCC4)cc1)c1ccc(Cl)cc1 | inactive: 3.78% |
| Cc1ccc2c(=O)cc(C(=O)Nc3c(C(=O)Nc4cccc(Cl)c4)oc4ccccc34)oc2c1 | inactive: -1.67% |
| COc1ccc(NC(=O)c2c(NCc3cccs3)sc3c2CCCC3)cc1 | inactive: -6.37% |
| COC(=O)c1ccc(NC(=O)Cn2c(=O)nc(-c3ccccc3)c3ccccc32)cc1 | inactive: 13.9% |
| CCOC(=O)c1ccc(NC(=O)Cn2ncc3c(C)n(Cc4ccccc4F)c(C)c3c2=O)cc1 | inactive: 8.58% |
| COc1cc2ccccc2cc1C(=O)Nc1ccc2oc(-c3ccc(Cl)cc3)nc2c1 | inactive: 12.5% |
| Cc1ccc(-n2ncc3c(N(CC(C)C)CC(C)C)ncnc32)c(C)c1 | inactive: -5.62% |
| O=C(COc1ccccc1[N+](=O)[O-])N1CCC(c2nc3ccccc3o2)CC1 | inactive: 1.02% |
| Cc1c(CC(=O)NCCc2ccccc2F)c(=O)oc2cc(O)c(Cl)cc12 | inactive: 4.7% |
| Cc1ccc(CCNC(=O)c2c(C)oc3nc(C)nc(N4CCOCC4)c23)cc1 | inactive: 2.48% |
| CCN(CCCNC(=O)c1cc(Nc2ccc(OC)cc2OC)nc2ccccc12)c1cccc(C)c1 | inactive: -7.12% |

| Structure (SMILES) | activity change, negative = cytotoxicity |
| --- | --- |
| CC(C)OC(=O)c1c(NC(=O)COc2cccc(Br)c2)sc2c1CCCC2 | inactive: 3.27% |
| O=C(CSc1nc2c([nH]c3ccccc32)c(=O)n1-c1ccccc1)N1CCOCC1 | inactive: 3.43% |
| CC(CNC(=O)C1CCN(S(=O)(=O)c2ccc3c(ccn3C)c2)CC1)c1ccccc1 (configuration not stated) | inactive: 6.06% |
| COc1ccc(-c2onc(C)c2C)cc1S(=O)(=O)N1CCN(c2ccc(Cl)cc2)CC1 | inactive: 4.59% |
| Nc1nonc1C(=O)NCCNCc1cccc(Cl)c1Cl | inactive: -0.255% |
| O=C1CC(c2cccc(O)c2)c2cc3c(cc2N1)OCO3 (configuration not stated) | inactive: 2.34% |
| CCCCN(CC)CCCNC(=O)C1CCCN(c2ncnc3c2nc2n3CCCCC2)C1 (configuration not stated) | inactive: -3.44% |
| CCn1c(C)c(C)c2cc(C(=O)NCc3ccc(OC)cc3OC)ccc21 | inactive: -25.3% |
| CCN(CC)S(=O)(=O)c1ccc(NC(=O)c2c(C)oc3ncnc(N4CCOCC4)c23)cc1 | inactive: 8.3% |
| COc1cccc2c1Oc1ncccc1N(C(=O)CCC(=O)NC(C)C)C2 | inactive: -3.4% |
| CCC(=O)N1CCc2cc(CNS(=O)(=O)c3ccc(NC(=O)CC(C)C)cc3)ccc21 | inactive: -17.2% |
| CCc1c(C)sc2c1CCN(C(=O)Nc1cc(Cl)c(OC)cc1OC)C2c1ccccc1 (configuration not stated) | inactive: -15.5% |
| COc1ccc2c(c1)CC(C(=O)NCCCN1CCN(c3ccccc3F)CC1)CO2 (configuration not stated) | inactive: 0.685% |
| CCC(=O)N1CCc2cc(Br)cc(S(=O)(=O)CCC(=O)Nc3ccc(C)c(F)c3)c21 | inactive: 9.22% |
| C#CCn1cnc2c(cnn2-c2ccc(F)cc2)c1=O | inactive: 2.24% |
| COc1cc(NC(=O)Cn2cnc3c2c(=O)n(C)c(=O)n3C)c(OC)cc1Cl | inactive: 13.1% |
| CCOC(=O)c1c(NC(=O)/C(C#N)=C/c2ccccc2)sc2c1CCC2 | inactive: -9.39% |
| Cc1cc(C)cc(NC(=O)Nc2ccccc2OCc2cc(=O)n3ccccc3n2)c1 | inactive: 15.9% |
| CC(=O)Nc1ccc(NC(=O)c2cc3sccc3n2Cc2ccc(Cl)cc2)cc1 | inactive: 24.3% |
| CCOc1ccc(NC(=O)c2c(NC(=O)c3ccccc3F)sc3c2CCC3)cc1 | inactive: -4.54% |
| CCOc1cc(/C=C(\C#N)C(=O)Nc2ccc(C)cc2)ccc1OCc1cc(=O)n2nc(CC)sc2n1 | inactive: -4.69% |
| CCOc1ccccc1NC(=O)c1c(NCc2cccs2)sc2c1CCCCC2 | inactive: -7.48% |
| COc1cccc(Cn2c(SCC(=O)N(C)c3ccccc3)nc3ccccc32)c1 | inactive: 2.81% |
| COc1cccc2cc(-c3csc(-c4ccc(Cl)cc4)n3)c(=O)oc12 | inactive: 2.26% |
| Cc1ccc(CCNC(=O)c2cc(C)nc3c2c(C)nn3-c2ccc(C)cc2)cc1 | inactive: 14.9% |

| Structure (SMILES) | activity change, negative = cytotoxicity |
| --- | --- |
| O=C(Nc1ccc(C(F)(F)F)cc1)C1CCN(c2cnccn2)CC1 | inactive: -16% |
| CCc1ccc(-n2nc(C)c3c(C(=O)Nc4cc(C)c(Cl)cc4OC)cc(C)nc32)cc1 | inactive: 4.77% |
| CCc1ccc(-c2nn(CC(=O)NCc3ccccc3)c3c2cnc2ccc(C)cc23)cc1 | inactive: 1.38% |
| O=C(CN1CCSc2ccccc21)N1CCCCC1 | inactive: 6.64% |
| CCOc1ccccc1NC(=O)Cn1c(=O)n(-c2ccc(F)cc2)c(=O)c2c3c(sc21)CN(C(C)=O)CC3 | inactive: -5.95% |
| Cc1ccc(-c2nc(CS(=O)(=O)CC(=O)NCc3ccc(Cl)cc3)c(C)o2)cc1 | inactive: -1.73% |
| COC(=O)c1ccc(Cn2c(SCc3ccccc3)nc3ccncc32)cc1 | inactive: -2.48% |
| Cc1cc(C(=O)Nc2cccc(F)c2)c2c(C)nn(-c3cccc(Cl)c3C)c2n1 | inactive: -10.5% |
| CCOc1ccc(C(=O)Nc2ccccc2OCc2cc(=O)n3ccccc3n2)cc1 | inactive: 0.0159% |
| Cc1ccccc1C(=O)OCc1cc(=O)n2c(C)csc2n1 | inactive: -52.1% |
| CCc1nn(CC(=O)NCc2ccc(OC)c(OC)c2)c(=O)c2cc3sc(C)cc3n12 | inactive: 11.4% |
| CCOC(=O)c1c(NC(=O)c2cc3nc(-c4ccccc4)cc(C(F)(F)F)n3n2)sc2c1CCC(C)C2 (configuration not stated) | inactive: -23.5% |
| COc1ccc(CCNC(=O)c2nc(SCc3ccc(C)cc3)ncc2Cl)cc1OC | inactive: -5.69% |
| CCOC(=O)Cn1c(=O)n(-c2ccccc2OC)c2nc(-c3ccccc3F)nc(C(N)=O)c21 | inactive: 21.1% |
| COc1ccccc1OCCCCn1c(-c2ccc(Cl)cc2)nc2ccccc2c1=O | inactive: -0.734% |
| CCOc1ccc(C(=O)Nc2ccc3oc(-c4ccc(Br)cc4)nc3c2)cc1 | inactive: 0.154% |
| CCOC(=O)c1ccc(N2C(=O)Cc3cc(OCC)c(OCC)cc3C2c2ccccc2)cc1 (configuration not stated) | inactive: 25.2% |
| CCOc1ccc(NS(=O)(=O)c2ccc3[nH]cc(C(=O)N4CCCCCC4)c(=O)c3c2)cc1 | inactive: -3% |
| NC(=O)CSc1nnnn1-c1cccc(O)c1 | inactive: -0.122% |
| COc1cccc(CN2C(=O)C3(SCC(=O)N3c3ccc(C(C)C)cc3)c3ccccc32)c1 (configuration not stated) | inactive: 2.97% |
| Cn1c(SCc2ccccc2Cl)nc2c([nH]c3ccccc32)c1=O | inactive: 6.69% |
| COc1ccc(N2CCN(C(=O)c3sc4nc5n(c(=O)c4c3C)CCC5)CC2)cc1 | inactive: 2.58% |
